# Assay results as given in article PMC4336329 (PLoS ONE, 2015).
# The whole screen tested about 310,000 compounds, of which about 14,000 (4.5%) showed an effect of 50% or more. Effects have a minus sign here. This is one part of the list.
# Molecular target: human ether-à-go-go-related gene (hERG) potassium channel (human, UniProt Q12809)
# Experiment: primary screen, population patch clamp on CHO cells stably expressing hERG
# 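Note: peak tail current of the secondary pulse compared with the same well before compound.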
# Chain of human ether-à-go-go-related gene (hERG) potassium channel (Q12809 whole entry, looked up): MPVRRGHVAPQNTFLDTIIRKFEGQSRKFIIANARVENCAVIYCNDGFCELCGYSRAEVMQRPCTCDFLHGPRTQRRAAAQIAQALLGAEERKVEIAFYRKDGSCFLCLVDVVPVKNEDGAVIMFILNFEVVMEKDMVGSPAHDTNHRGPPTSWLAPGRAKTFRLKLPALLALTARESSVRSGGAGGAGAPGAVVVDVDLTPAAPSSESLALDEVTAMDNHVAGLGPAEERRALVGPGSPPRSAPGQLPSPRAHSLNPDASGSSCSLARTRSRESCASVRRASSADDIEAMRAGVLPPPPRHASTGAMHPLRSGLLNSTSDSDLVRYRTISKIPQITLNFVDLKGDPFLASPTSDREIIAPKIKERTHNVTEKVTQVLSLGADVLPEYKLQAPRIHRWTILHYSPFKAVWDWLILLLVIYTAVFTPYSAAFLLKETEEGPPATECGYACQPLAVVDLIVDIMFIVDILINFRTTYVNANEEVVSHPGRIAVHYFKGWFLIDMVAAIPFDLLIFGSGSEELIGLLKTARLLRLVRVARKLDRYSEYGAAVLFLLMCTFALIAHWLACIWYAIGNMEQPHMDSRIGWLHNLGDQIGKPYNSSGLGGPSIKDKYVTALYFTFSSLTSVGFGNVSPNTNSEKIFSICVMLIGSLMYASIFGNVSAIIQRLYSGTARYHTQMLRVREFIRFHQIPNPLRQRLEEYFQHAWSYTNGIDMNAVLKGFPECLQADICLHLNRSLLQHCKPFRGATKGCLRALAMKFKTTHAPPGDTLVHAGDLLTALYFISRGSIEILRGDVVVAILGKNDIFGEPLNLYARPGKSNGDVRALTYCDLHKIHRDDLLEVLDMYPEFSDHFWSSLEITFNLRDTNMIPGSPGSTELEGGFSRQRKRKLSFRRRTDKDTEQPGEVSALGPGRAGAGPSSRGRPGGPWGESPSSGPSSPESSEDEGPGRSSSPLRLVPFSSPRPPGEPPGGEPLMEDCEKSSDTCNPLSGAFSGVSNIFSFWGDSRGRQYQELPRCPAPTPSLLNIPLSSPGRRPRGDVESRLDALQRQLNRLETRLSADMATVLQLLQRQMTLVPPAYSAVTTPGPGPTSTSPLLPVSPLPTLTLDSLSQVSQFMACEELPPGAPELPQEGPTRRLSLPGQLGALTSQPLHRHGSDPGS
row,Structure (SMILES),"hERG current change (%, negative = inhibition) at 10uM [%]"
1,O=Cc1c(Cl)cccc1Cl,13.9
2,O=C1NC(=O)N(Cc2ccc(F)cc2)C(=O)/C1=C/c1cccs1,25.5
3,CN(Cc1ccccc1)C1=CC(=[N+]2CCCCC2)CC(C)(C)C1.[I-],-54.3
4,CCCCNC(=S)N(C)/N=C/c1ccc2c(c1)OCO2,-50.1
5,Cc1ccc(S(=O)(=O)N(C)c2ccc(C(=O)Nc3ccccn3)cc2)cc1,-1.56
6,O=C(NCc1ccco1)C1CC(=O)N(CCc2ccccc2)C1 (stereo not drawn),1.48
7,O=C(NC1CC1)c1cccc(Nc2ccc(-c3ccc4c(c3)OCCO4)nn2)c1,-34.2
8,COC(=O)CC1C(=O)NCCN1C(=O)CSc1nc2cc(Cl)ccc2o1 (stereo not drawn),13.5
9,COC(=O)c1ccccc1S(=O)(=O)N1CCC(C(=O)NCc2ccco2)CC1,-9.91
10,Cc1ccc(C2CC(c3cccc(C)c3)n3nc(N)nc3N2)cc1 (stereo not drawn),-15.8
11,CCOC(=O)Cc1nc(-c2cccc(C(F)(F)F)c2)no1,-0.739
12,C[C@@H](C[C@@H](O)[C@H](O)C(C)(C)O)[C@@H]1CC[C@]2(C)C3=CC[C@H]4C(C)(C)C(=O)CC[C@]4(C)[C@H]3CC[C@@]12C,11.1
13,Cc1ccc(O)c(C(=O)c2cnc3c(c2)CN(C)C(=O)N3)c1,4.84
14,Cc1ccc(CNC(=O)CCC(=O)Nc2nnc(C3CCCCC3)s2)cc1,17.6
15,COC(=O)C1CC(=O)c2sccc2C1 (stereo not drawn),4.62
16,Nc1ccc(-c2ccc(N)c([N+](=O)[O-])c2)cc1[N+](=O)[O-],11.5
17,COc1ccc(CN=C2NC(=O)CC(C(=O)Nc3cc(C)cc(C)c3)S2)cc1 (stereo not drawn),-18.4
18,O=C(NCc1ccco1)c1ccc(Cl)c(S(=O)(=O)N2CCCC2)c1,-9.61
19,O=C1OC/C(=C(/O)c2ccc(Cl)cc2)C1=O,17
20,Cc1ccc2nc(SCC(=O)Nc3cccc4ccccc34)nc(=O)n2c1,-14
21,CC(C)CCNC(=O)C(C)N(C(=O)c1snc(C(N)=O)c1N)c1cnc2ccccc2c1 (stereo not drawn),-7.43
22,O=C(Nc1cccc(S(=O)(=O)N2CCCCCC2)c1)C1CCN(C(=O)c2ccc(F)cc2)CC1,-88
23,CCc1c(C)c(C#N)c2nc3ccccc3n2c1NCc1ccco1,-35.4

row,Structure (SMILES),"hERG current change (%, negative = inhibition) at 10uM [%]"
1,COCCC(=O)N1CCC(Oc2ccc(C(=O)NCCC3=CCCCC3)cc2)CC1,-37.5
2,O=C(O)c1ccc(CSc2ncn[nH]2)cc1,0.736
3,NC(=O)[C@H]1CC2(CC(c3cccc(NC(=O)COc4ccc(Cl)cc4)c3)=NO2)CN1C(=O)Cc1ccc([N+](=O)[O-])cc1 (stereo partly drawn),-19.3
4,CC1CN=C(Nc2ccc(F)cc2)S1 (stereo not drawn),5.03
5,CC(c1nccs1)N(C)C(=O)c1cn(Cc2cccc3ccccc23)nn1 (stereo not drawn),-11.8
6,O=C(CCN1C(=O)C2CC=CCC2C1=O)Nc1cccc(S(=O)(=O)N2CCCCC2)c1 (stereo not drawn),-11.2
7,CC(C)N1CC(C(=O)Nc2cc(Cl)cc(Cl)c2)CC1=O (stereo not drawn),-15.1
8,COc1cc2c(cc1/C=C1/NC(=O)N(c3ccccc3)C1=O)OCO2,2.32
9,Cc1ccccc1NC(=O)c1cc2c(=O)n3cccc(C)c3nc2s1,-1.7
10,O=C1Nc2cc(C(F)(F)F)ccc2N2CCCCC12 (stereo not drawn),10.3
11,O=C(CSc1nc2ccccc2[nH]1)Nc1ccc2c(c1)CCC2,17.3
12,O=C(NCc1n[nH]c(=S)n1Cc1ccccc1)c1ccc(Cl)cc1Cl,-0.26
13,CCn1c(CC(=O)Nc2ccc(Cl)cc2)nnc1SCC(=O)N1CCOCC1,10.9
14,O=C(NC1CCCN(Cc2ccc(Cl)cc2)C1)c1cccc(N2CCCC2=O)c1 (stereo not drawn),-14.8
15,COc1cc(SC)ccc1C(=O)Nc1ccc(Br)cn1,14.4
16,O=C(Nc1ccc(N2CCCCC2)c(Cl)c1)c1ncn[nH]1,0.294
17,O=C(C[C@@H]1NS(=O)(=O)OC2CCCCC21)c1ccccc1 (stereo partly drawn),-14.2
18,Cc1ccc(S(=O)(=O)Cn2nnnc2C(C(C)C)N2CCc3ccccc3C2)cc1 (stereo not drawn),2.53
19,O=C(O)/C(=C/c1ccco1)NC(=O)c1ccccc1,-2.2
20,COc1ccc(OC)c(-c2nnc(SCC(=O)N3CCCC3)o2)c1,5.59
21,O=C(NCc1ccco1)C(=O)c1cn(CC(=O)N2CCCCC2)c2ccccc12,19.3
22,Cc1cccc2cc(C#N)c(NCCNC(=O)NC3CCCCC3)nc12,5.16
